Measured values as given in PubChem BioAssay AID463173 (ICCB-Longwood Screening Facility, Harvard Medical School, 2010).
Screen size: about 52,000 compounds; about 1,700 (3.3%) were called active. Rule as the data show it: active = survival mostly below about 52% (no sharp cut-off); inactive = mostly above about 56%. Some of the results follow.

test system: Wild type; assay: growth inhibition of S. aureus wild type versus tarO mutant, primary screen, teichoic acid synthesis inhibitors, RN4220, OD600 (AID 463173); settings: S. aureus RN4220 wild type/DeltatarO growth, OD600, 18 h, stronger effect = lower value, screened at 18.75 µg/mL (by protocol)

Compound	survival
Cn1nnnc1SCCCNCc1cccc(OCc2ccc(F)cc2)c1	inactive: 114%
Cc1cccc(N2CCN(C(=O)C3CCN(c4ncnc5c4nc4n5CCCCC4)CC3)CC2C)c1 (configuration not stated)	active: 1%
CCCN(CCC)C(=O)C(Cc1ccccc1)NS(=O)(=O)c1ccc2c(c1)c(=O)n(C)c(=O)n2C (configuration not stated)	inactive: 82%
Cc1oc2c(C)c3oc(=O)c(CC(=O)N4CCCCC4)c(C)c3cc2c1C	inactive: 83%
CCc1nn(C(C)C(=O)N2CCN(c3ccccc3)CC2)c(=O)c2cc3occc3n12 (configuration not stated)	inactive: 89%
CSc1ccc(CCNC(=O)c2ccc3c(Cl)c4c(nc3c2)CCCC4)cc1	inactive: 78%
CCCSc1ncc(Cl)c(C(=O)Nc2nc3ccc(C)cc3s2)n1	inactive: 76%
CC1(C)CC(n2c(SCC#N)nc3c(c2=O)C2(CCCC2)Cc2ccccc2-3)CCO1 (configuration not stated)	inactive: 118%
Cc1nn2c(=O)cc(COC(=O)c3cccs3)nc2s1	inactive: 68%
CCc1ccccc1NC(=O)Cn1nc(C(F)(F)F)c2c1CCC2	inactive: 74%
Cc1cc(C)c2c(CC(=O)Nc3ccccc3C(F)(F)F)coc2c1	inactive: 91%
CN(C)c1ccc(C(CNS(=O)(=O)c2ccc(Cl)cc2)N2CCOCC2)cc1 (configuration not stated)	active: 10%
Cc1cccc(NC(=O)C2CCN(c3nnc(C)c4c(C)n(-c5ccccc5)nc34)CC2)c1C	inactive: 68%
O=C(NCc1ccccc1)C(=O)NCC(c1ccco1)S(=O)(=O)c1cccs1 (configuration not stated)	inactive: 70%
Cc1ccc(Cl)cc1NC(=O)C1CCCN(c2cnccn2)C1 (configuration not stated)	inactive: 91%
CCc1nn(CC(=O)Nc2cccc(C(C)=O)c2)c(=O)c2cc3sccc3n12	inactive: 78%
O=C(CCn1c(=O)c2ccccc2n(Cc2cccc(Cl)c2)c1=O)NCCc1ccccc1	inactive: 74%
CCOC(=O)c1ccccc1NC(=O)Cn1c(=O)n(Cc2nc(C)no2)c(=O)c2ccccc21	inactive: 73%
CN(c1ccccc1C(=O)O)S(=O)(=O)c1ccc2[nH]c(=O)oc2c1	inactive: 80%

Compound	survival
CCOC(=O)c1c(S(=O)(=O)N2CCC(C(=O)NCc3ccccc3OC)CC2)c(C)n(C)c1C	inactive: 70%
CCCCSCCCNC(=O)c1cn(C)c2ccc(S(=O)(=O)N3CCCC3)cc2c1=O	inactive: 85%
Cc1cc(C)cc(OCC(=O)N(Cc2ccc(Cl)cc2)CC2CCCO2)c1 (configuration not stated)	inactive: 69%
Cc1ccc(CNC(=O)CCCCn2c(=O)c3ccccc3n(Cc3ccc(C)cc3)c2=O)cc1	inactive: 80%
CC(=O)Nc1ccc2[nH]c(C)cc(=O)c2c1	inactive: 103%
O=C(NC1CCCC1)c1ccc2c(=O)n(Cc3ccccc3)c(SCc3ccccc3)nc2c1	inactive: 83%
Cc1ccc(-n2nc(C(=O)Nc3ccc(C)c(F)c3)c(=O)n(C)c2=O)cc1	inactive: 68%
COc1ccc(-c2nc3ccc(C)cn3c2Nc2ccc3c(c2)OCO3)cc1	inactive: 89%
COc1ccc(N2CCN(CCCNC(=O)c3cc(Nc4ccccc4OC)nc4ccccc34)CC2)cc1	inactive: 83%
COc1cc(C(=O)N2CCN(c3ccc(Nc4ccccc4)nn3)CC2)cc(OC)c1OC	inactive: 59%
Cc1ccc(-n2nnnc2CNC(=O)c2ccccc2)cc1C	inactive: 148%
Cc1ccc(Nc2nc(Nc3ccc(C)c(C)c3)nc(N3CCOCC3)n2)cc1C	inactive: 73%
CCc1cccc(C)c1NC(=O)C1CCN(S(=O)(=O)Cc2ccccc2)CC1	inactive: 86%
CC1CCCCN1S(=O)(=O)c1cc2c3c(c1)CC(=O)N3CCC2 (configuration not stated)	inactive: 78%
O=C(Cn1c(-c2cccs2)cc2ccccc21)NCc1ccccc1Br	inactive: 120%
COc1ccc(N2CC(NC(=O)COc3ccc4ccccc4c3)CC2=O)cc1 (configuration not stated)	inactive: 87%
O=C(Cn1c(=O)n(Cc2ccc(C(=O)NCc3ccccc3Cl)cc2)c(=O)c2ccccc21)Nc1ccc(F)c(Cl)c1	inactive: 78%
Cc1cccc(CNC(=O)CN2C(=O)CCCc3ccccc32)c1	inactive: 77%
Cc1ccc(-c2nc(CS(=O)(=O)CC(=O)NCc3ccccc3Cl)c(C)o2)cc1	inactive: 77%

Compound	survival
CN(C)S(=O)(=O)c1ccc2c(c1)N(CC(=O)N1CCN(c3ccccc3F)CC1)CCS2	inactive: 123%
CCc1cccc(C)c1NC(=O)CN1C(=O)C2(SCC(=O)N2c2cc(C)cc(C)c2)c2ccccc21 (configuration not stated)	inactive: 72%
COc1cccc(C(=O)Nc2ccccc2-c2nc3ccccc3s2)c1	inactive: 42%
CCOC(=O)c1oc2ccccc2c1NC(=O)CN1CCOCC1	inactive: 105%
CC1=C(C(=O)Nc2cccc(C(F)(F)F)c2)C2(CCCCC2)OC1=O	inactive: 88%
CCNC(=O)CCSc1nc2cc(Cl)ccc2o1	inactive: 110%
Cc1oc(-c2cccc(Cl)c2)nc1CN1CCCC(C(=O)NCc2ccc(Cl)cc2)C1 (configuration not stated)	active: -1%
Cc1ccccc1CNC(=O)c1sc2ncnc(N(C)C3CCCCC3)c2c1C	inactive: 73%
O=S(=O)(c1ccc2[nH]c3c(c2c1)CCCCC3)N1CCN(c2cccc(Cl)c2)CC1	inactive: 78%
Cc1cccc(NC(=O)c2sc(-n3nc(C)c(CCC(C)C)c3C)nc2C)c1C	inactive: 91%
COc1cc(OC)cc(C(=O)Nc2cccc(-c3cn4cccnc4n3)c2)c1	inactive: 127%
COc1cc2[nH]c(=O)c(C(=O)NCCN3CCNCC3)c(O)c2cc1OC	inactive: 107%
Cc1ccc2c(c1C)NC(C(=O)O)C1CC=CC21 (configuration not stated)	inactive: 72%
CCCOc1ccc(NC(=O)CC2C(=O)N(c3ccc(C)cc3)C(=O)N2Cc2cccc(OC)c2)cc1 (configuration not stated)	inactive: 64%
O=C1NC2(CCCCC2)C(=O)N1c1ccc(C(F)(F)F)cc1	inactive: 106%
COc1ccc(NC(=O)CN2C(=O)c3ccccc3Sc3ccc(C(=O)N4CCOCC4)cc32)c(OC)c1	inactive: 76%
CCOC(=O)C1CCN(c2c(C(=O)c3ccc(C)cc3)cnc3ccc(F)cc23)CC1	active: 3%
O=c1c2cc3c(nc2ncn1Cc1ccc(Cl)cc1)CCCC3	inactive: 76%
COc1cc(NC(=O)c2cccc(F)c2)ccc1NC(=O)c1cc2ccccc2o1	inactive: 80%
